This passage reports EC50 results from patent publication US20210324096A1 (Genmab, published 2021).

The target of the assay is T1, cynomolgus monkey DR5 protein with deletion of amino acids 185-213 and death domain loss-of-function mutation … (cynomolgus monkey (Macaca fascicularis)).
T1 construct: Transiently expressed on CHO cells; also called Cyno DR5Mfdel-K420N; cynomolgus DR5-transfected CHO
T1 chain: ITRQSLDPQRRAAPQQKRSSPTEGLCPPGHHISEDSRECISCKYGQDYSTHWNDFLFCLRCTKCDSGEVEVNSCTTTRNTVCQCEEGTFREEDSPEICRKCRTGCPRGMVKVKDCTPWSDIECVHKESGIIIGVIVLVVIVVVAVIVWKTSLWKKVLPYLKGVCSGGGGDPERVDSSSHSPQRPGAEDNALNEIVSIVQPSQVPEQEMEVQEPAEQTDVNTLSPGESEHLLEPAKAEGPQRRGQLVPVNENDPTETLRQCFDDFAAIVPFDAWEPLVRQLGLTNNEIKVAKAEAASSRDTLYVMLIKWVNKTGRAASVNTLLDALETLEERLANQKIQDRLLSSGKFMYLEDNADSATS
The assay is described as follows: flow cytometry on cynomolgus DR5-transfected CHO cells, four experiments (SD 0.175). A general note: Flow cytometry measures light scatter and fluorescence of single cells or particles in a stream.

B1: IgG1-hDR5-01-G56T-E430G (antibody)
heavy: EVQLQQSGAEVVKPGASVKLSCKASGFNIKDTFIHWVKQAPGQGLEWIGRIDPANTNTKYDPKFQGKATITTDTSSNTAYMELSSLRSEDTAVYYCVRGLYTYYFDYWGQGTLVTVSSASTKGPSVFPLAPSSKSTSGGTAALGCLVKDYFPEPVTVSWNSGALTSGVHTFPAVLQSSGLYSLSSVVTVPSSSLGTQTYICNVNHKPSNTKVDKRV[human IgG1 Fc with E430G (EU numbers) left out]
light: EIVMTQSPATLSVSPGERATLSCRASQSISNNLHWYQQKPGQAPRLLIKFASQSITGIPARFSGSGSGTEFTLTISSLQSEDFAVYYCQQGNSWPYTFGQGTKLEIKRTVAAPSVFIFPPSDEQLKSGTASVVCLLNNFYPREAKVQWKVDNALQSGNSQESVTEQDSKDSTYSLSSTLTLSKADYEKHKVYACEVTHQGLSSPVTKSFNRGEC
notes: IgG1,kappa
For the molecule B1, the EC50 (usually the concentration that produces a half-maximal response) was found to be 0.27 µg/mL.
